Results taken from the supplement of paper PMC7125110.
Variants at the background level are over-represented here.

B1: glmS ribozyme (parent)
chain: AUAAAAGCGCCAGAACUACAGAAAUGUAGUUGACGAGGAGGAGGUUUAUCGAAUUUUCGGCGGAUGCCUCCAAA

Key:
Conditions in all cases: with glucosamine-6-phosphate
[1] = variants of: B1; assay: self-cleavage kobs at 160 uM GlcN6P; higher = faster cleavage; RNA array
How it was run: (§1)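 The measurements used barcoded ribozyme variants on sequenced MiSeq chips, transcribed in situ by E. coli RNA polymerase and tracked at 37 °C with a hybridised Cy3 probe. Glucosamine-6-phosphate, 40 μM to 10 mM in HEPES/KCl/Mg(OAc)2 buffer, was flowed in while tiles were imaged over ~14 h. Baseline-normalised signals, also normalised to non-cleaving reference variants, gave per-tile medians that were fit to one- or two-exponential decays for kobs. kcat and KM resulted from weighted Michaelis–Menten fits across concentrations.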

[2] = variants of: B1; assay: self-cleavage kobs at 2500 uM GlcN6P; higher = faster cleavage; RNA array
How it was run: as §1

[3] = variants of: B1; assay: self-cleavage kobs at 10000 uM GlcN6P; higher = faster cleavage; RNA array
How it was run: as §1

| Variant | self-cleavage kobs at 160 uM GlcN6P [1] | self-cleavage kobs at 2500 uM GlcN6P [2] | self-cleavage kobs at 10000 uM GlcN6P [3] |
| --- | --- | --- | --- |
| C10G C34G G38A U47A | < 1e-05 s⁻¹ |  |  |
| C10G U31C U49A G60C | < 1e-05 s⁻¹ |  |  |
| C10U A12C A15C C68G C70G | < 1e-05 s⁻¹ |  |  |
| C10U A12C G40C | < 1e-05 s⁻¹ | < 1e-05 s⁻¹ |  |
| C10U A12C U31G A42G | < 1e-05 s⁻¹ |  |  |
| C10U G32A G40C C68U | < 1e-05 s⁻¹ |  |  |
| C10U G32U G40U | < 1e-05 s⁻¹ |  |  |
| C10U G38A U46A | < 1e-05 s⁻¹ |  |  |
| C10U G43A | < 1e-05 s⁻¹ | < 1e-05 s⁻¹ | < 1e-05 s⁻¹ |
| C10U U54C U56G | < 1e-05 s⁻¹ |  |  |
| C10U U56C C67U | < 1e-05 s⁻¹ |  |  |
| C11A A33U U45G C61A | < 1e-05 s⁻¹ |  |  |
| C11A A42G A53C | < 1e-05 s⁻¹ |  |  |
| C11A C16A | < 1e-05 s⁻¹ |  |  |
| C11A C34G G66A | < 1e-05 s⁻¹ |  |  |
| C11A G38C U47G U55C | < 1e-05 s⁻¹ | < 1e-05 s⁻¹ |  |
| C11G A15G U65C | < 1e-05 s⁻¹ |  |  |
| C11G A33G G37C G44U U56C | < 1e-05 s⁻¹ | < 1e-05 s⁻¹ |  |
| C11G C16U | < 1e-05 s⁻¹ |  |  |

| Variant | self-cleavage kobs at 160 uM GlcN6P [1] | self-cleavage kobs at 2500 uM GlcN6P [2] | self-cleavage kobs at 10000 uM GlcN6P [3] |
| --- | --- | --- | --- |
| C11G G29U | < 1e-05 s⁻¹ |  |  |
| C11G U45C C71G | < 1e-05 s⁻¹ | < 1e-05 s⁻¹ |  |
| C11U C34G G51U | < 1e-05 s⁻¹ | < 1e-05 s⁻¹ |  |
| C11U C34U G66C | < 1e-05 s⁻¹ | < 1e-05 s⁻¹ |  |
| C11U C68U C70U | < 1e-05 s⁻¹ |  |  |
| C11U G51U A53G | < 1e-05 s⁻¹ |  |  |
| A12C A14U G44U U45A | < 1e-05 s⁻¹ |  |  |
| A12C G37A C58A | < 1e-05 s⁻¹ |  |  |
| A12G A15U G40C | < 1e-05 s⁻¹ |  |  |
| A12G G35U | < 1e-05 s⁻¹ | < 1e-05 s⁻¹ | < 1e-05 s⁻¹ |
| A12G G37A | < 1e-05 s⁻¹ |  |  |
| A12G G40U G62A | < 1e-05 s⁻¹ |  |  |
| A12G U31C G35A C50G A52U C68A | < 1e-05 s⁻¹ | < 1e-05 s⁻¹ |  |
| A12G U31G U46C G51A | < 1e-05 s⁻¹ | < 1e-05 s⁻¹ |  |
| A12U A15G A42C | < 1e-05 s⁻¹ |  |  |
| A12U G35U G41C C71G | < 1e-05 s⁻¹ | < 1e-05 s⁻¹ |  |
| A12U G51A U55C | < 1e-05 s⁻¹ |  |  |
| G13A A15G G51A U54G C61A A64C | < 1e-05 s⁻¹ |  |  |
| G13A C16A A36U G40A C68G | < 1e-05 s⁻¹ | < 1e-05 s⁻¹ |  |
